The values that follow come from PubChem BioAssay AID1346428 (National Center for Advancing Translational Sciences (NCATS), 2018).

The campaign covered roughly 48,000 compounds. About 1,200 (2.5%) were called active. Inconclusive results (about 2%) are left out.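 The calls were made as follows: active = activation of at least 60% and not above a set upper limit (about 1 call in 100 departs from these limits); inconclusive = activation of 40% to 60%, or above that upper limit; inactive = activation under 40%.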 This is one part of the list.

Sequence of UniProt O75388 (O75388 whole entry, looked up, the tested form may be a part): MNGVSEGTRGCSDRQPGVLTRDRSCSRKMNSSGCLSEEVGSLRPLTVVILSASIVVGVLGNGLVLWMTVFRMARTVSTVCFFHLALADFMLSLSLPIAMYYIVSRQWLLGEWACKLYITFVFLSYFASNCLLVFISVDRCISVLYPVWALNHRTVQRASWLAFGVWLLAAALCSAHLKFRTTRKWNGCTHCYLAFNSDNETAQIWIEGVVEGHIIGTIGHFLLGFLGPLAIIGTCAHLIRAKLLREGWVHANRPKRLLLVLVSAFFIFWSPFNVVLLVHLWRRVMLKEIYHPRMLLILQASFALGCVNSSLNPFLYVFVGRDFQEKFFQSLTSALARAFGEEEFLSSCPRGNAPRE

The target in the assay is Probable G-protein coupled receptor 32 (Homo sapiens) (UniProt O75388). The experiment in a line: qHTS for Agonists of Human Resolvin D1 Receptor DRV1. Also: 0% is about no effect. The following applies: CHO-K1 GPR32 beta-arrestin PathHunter luminescence, 90 min; at 76.9 µM; active compounds read high; zero percent set by DMSO-only wells. A digest of the protocol:
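GPR32 activation in stably transfected CHO-K1 cells, detected as beta-arrestin recruitment by enzyme-fragment complementation. Compound exposure: 90 min, 37 °C.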
Regarding `CCOc1ccccc1-n1cc2c(c1-c1ccc(OC)cc1)c(=O)n(C)c(=O)n2C`, the activation is inactive: -11.8%.

Regarding `COc1ccc(NC(=O)c2cn(-c3ccccc3)nc2-c2ccc(C)cc2)cc1`, the activation is inactive: -8.55%.

As for `COC(=O)c1ccc(NC(=O)CN2CCN(c3ccc(Cl)cc3)CC2)cc1`, the activation is inactive: 3.29%.

For `O=C1CC(c2ccccc2)Cc2[nH]c(=O)c(C(=O)Nc3cccc(Cl)c3)cc21` (stereo not drawn), the activation is inactive: -7.59%.

`Cc1c(Cl)cccc1NC(=O)CN1C(=O)COc2ccc(S(=O)(=O)Nc3ccccc3)cc21`: the activation is inactive: 9.39%.

As for `CCOC(=O)c1cccc(NC(=O)C(C)n2c(C)c3cnn(-c4ccccc4)c(=O)c3c2C)c1` (stereo not drawn), the activation is inactive: 9.21%.

Turning to `COc1ccc(NC(=O)c2ccc3c(c2)CCN3S(=O)(=O)c2ccc(C)cc2)cc1Cl`, the activation was inactive: 0.0023%.

As for `O=C(CSc1nc2ccccc2nc1Cc1ccccc1)Nc1ccc2c(c1)OCO2`, the activation is inactive: -4.67%.

On to `CCCOC(=O)CSc1nnc2ccc3ccccc3n12`, for which the activation is inactive: -0.0061%.

As for `Cc1ccc(NC(=O)CN(C)S(=O)(=O)c2ccc3nc(C)sc3c2)c(C)c1`, the activation was inactive: -15.5%.

In the case of `CCCSCCCNC(=O)c1ccc(Cn2c(=O)c3cccn3c3cccnc32)cc1`, the activation was inactive: 13.3%.

As to `COc1cc(NC(=O)CSc2nc3nc(C)c(Cc4ccc(C)cc4)c(C)n3n2)cc(OC)c1`, the activation was inactive: -14.9%.

As for `FC(F)(F)C(F)(F)C(F)(F)C(F)(F)C(F)(F)C(F)(F)C(F)(F)C(F)(F)Br`, the activation is inactive: -7.92%.

Take `COc1ccc(Cl)cc1NC(=O)CCc1c(C)nc2c(c1C)c(=O)n(C)c(=O)n2C`: the activation was inactive: 17.8%.

Regarding `COc1ccc(-c2nc3sc(CCNC(=O)c4cc(Cl)ccc4OC)c(C)n3n2)cc1`, the activation is inactive: 23.5%.

Consider `Cc1ccccc1NS(=O)(=O)c1ccc(Br)s1`, for which the activation is inactive: -2.11%.

Consider `CN(Cc1ccccc1)S(=O)(=O)c1ccc(F)c(C(=O)Nc2cccc(Cl)c2Cl)c1`, for which the activation was inactive: -6.28%.

In the case of `CCN(CC)c1cc2c(cc1F)c(=O)c(S(=O)(=O)c1cc(C)ccc1C)cn2Cc1ccccc1`, the activation was inactive: -18.2%.

In the case of `Cc1c(/C=C(\C#N)C(=O)Nc2cccc(Cl)c2)c2ccccc2n1Cc1ccccc1Cl`, the activation was inactive: -9.36%.

In the case of `CCOC(=O)c1c(NC(=O)c2ccc(S(=O)(=O)N(CCOC)CCOC)cc2)sc2c1CC(C)(C)NC2(C)C`, the activation was inactive: -32.1%.

`Cc1cccc(CC2C(=O)Nc3ccccc32)c1` (stereo not drawn): the activation is inactive: -10.7%.

As to `CCOc1ccccc1-n1nnc(-c2nc(-c3ccccc3)no2)c1N`, the activation was inactive: 0.317%.

As for `CCOc1ccc(C2=NC(c3cccs3)=Nc3ccc(C(C)C)cc3N2)cc1`, the activation is inactive: -37.5%.

As to `CCOC(=O)c1cccc(NC(=O)C2CCN(S(=O)(=O)c3ccc4c(c3)oc(=O)n4C)CC2)c1`, the activation was inactive: -7.92%.

Regarding `COc1ccc(S(=O)(=O)N(CCc2ccccc2)CC(=O)Nc2cccc(OC)c2)cc1`, the activation is inactive: -14.7%.

For the molecule `CCc1ccc(C(=O)COC(=O)C(Cc2c[nH]c3ccccc23)NC(=O)c2ccc(Br)cc2)cc1` (stereo not drawn), the activation is inactive: -6.78%.

In the case of `CCOc1ccc(C2c3cc(OCC)c(OCC)cc3CC(=O)N2c2ccc(C(=O)O)cc2)cc1OCC` (stereo not drawn), the activation was inactive: -1.03%.

In the case of `COc1ccccc1N1CCN(c2ncnc3c2cnn3C)CC1`, the activation is inactive: 6.03%.

Take `COc1ccc(CCN2C(=O)c3oc4ccc(F)cc4c(=O)c3C2c2ccc(C(C)(C)C)cc2)cc1` (stereo not drawn): the activation was inactive: 16.9%.

Turning to `CCc1cccc(C)c1NC(=O)Cn1ccn(-c2ccc(F)cc2)c(=O)c1=O`, the activation is inactive: -5.46%.

For `CCOc1ccc(C2CC(=O)c3c([nH]c(C(=O)OCc4ccccc4)c3C)C2)cc1` (stereo not drawn), the activation is inactive: 49.1%.

Turning to `Cc1nc2ccc(S(=O)(=O)N(C)CC(=O)Nc3ccc(Br)c(C)c3)cc2s1`, the activation was inactive: 23.9%.

On to `Cc1ccc(CNC(=O)c2cnc(N3CCCC3)nc2C)cc1`, for which the activation is inactive: 3.29%.

For `CCc1ccccc1NC(=O)c1nnn(CC(=O)Nc2c(C)cc(C)cc2C)c1N`, the activation is inactive: -8.84%.

On to `Cc1cc(C)c2c(NC(=O)c3ccccc3Cl)c(C(=O)Nc3ccc(C)c(C)c3)sc2n1`, for which the activation was inactive: -4.83%.

For the molecule `COc1cc(CNCCSc2nnnn2C)ccc1OCc1ccccc1`, the activation is inactive: 7.2%.

Take `CCC1=Nc2cc(C(=O)NC3CCCC3)ccc2Sc2ccc(Cl)cc21`: the activation was inactive: -13.9%.

`CCOC(=O)c1cc(S(=O)(=O)N2CCN(c3cccc(C)c3)C(C)C2)[nH]n1` (stereo not drawn): the activation was inactive: -4.53%.

`Cc1ccc2nc3sc(C(=O)Nc4ccc(F)cc4)cc3cc2c1`: the activation was inactive: -3.28%.

Consider `COC(=O)c1ccc(NC(=O)C(C)N2Cc3ccccc3C2=O)cc1` (stereo not drawn), for which the activation is inactive: -1.75%.

With `COc1ccc(N2CCN(C(=O)c3c(C)oc4ncn(CC(C)C)c(=O)c34)CC2)cc1`, the activation is inactive: -5.5%.

Regarding `O=C(COCc1cc(-c2ccc(F)cc2)on1)Nc1cc(Cl)cc(Cl)c1`, the activation is inactive: -7.69%.

`COc1ccc(CCNC(=O)c2cc(-c3ccc(C)cc3)nc3n[nH]c(-c4ccc(F)cc4)c23)cc1OC`: the activation was inactive: -10.1%.

On to `CCc1ccccc1NC(=O)Cn1cc(C(=O)c2ccncc2)c(=O)c2cc(C)ccc21`, for which the activation is inactive: -13.2%.

`O=C(CCSCCc1ccccn1)Nc1ccccc1C(F)(F)F`: the activation was inactive: -1.48%.

For `O=C(CCSCc1cccc(F)c1)NCCc1ccccc1`, the activation was inactive: 15.6%.

Consider `Cc1ccc(N2CC(C(=O)NCCS(=O)(=O)N3CCN(c4ccc(F)cc4)CC3)CC2=O)cc1` (stereo not drawn), for which the activation was inactive: -6.17%.

`CC1=C(C(=O)Nc2cccc(F)c2)C2(CCCCCC2)OC1=O`: the activation is inactive: -12.1%.

Regarding `COc1cc(OC)c(NC(=O)Cn2c(=O)nc(-c3ccccc3)c3ccccc32)cc1Cl`, the activation is inactive: 11.3%.

As for `COCCCNc1oc(-c2ccc(COc3ccccc3C)o2)nc1C#N`, the activation is inactive: -14.9%.

On to `CCC(CC)C(=O)Nc1cccc(-c2cn3cccnc3n2)c1`, for which the activation is inactive: 28.2%.

Consider `COc1cccc(OCCn2c(-c3ccc(Cl)cc3)nc3ccccc3c2=O)c1`, for which the activation was inactive: 19%.

Turning to `Cc1ccc2c(=O)c(C(=O)c3cccc(Cl)c3)cn(CC(=O)NCc3ccccc3)c2n1`, the activation is inactive: -0.317%.

Turning to `COc1cccc(Cn2c(=O)n(-c3cc(C)cc(C)c3)c(=O)c3oc4ccccc4c32)c1`, the activation is inactive: -14.1%.

For `CCOc1cc(CNC(=O)c2cc(-c3ccc(Cl)s3)nc3ccccc23)ccc1OC`, the activation was inactive: -4.61%.

On to `COc1ccc(CCNC(=O)Cn2c(=O)cc(C(F)(F)F)c3c(C)nn(C)c32)c(OC)c1`, for which the activation was inactive: -3.52%.

`CCc1ccc(C2=CC(c3cccc(OC)c3OC)n3c(nc4ccccc43)N2)cc1` (stereo not drawn): the activation was inactive: -13.3%.

Consider `CCc1ccc(NC(=O)C2CCN(c3ccc(Sc4ccc(C)cc4)nn3)CC2)cc1`, for which the activation was inactive: 19.5%.

Consider `Cc1ccc(N2CCN(S(=O)(=O)c3nnc(NC(=O)c4cccc(F)c4)s3)CC2)cc1`, for which the activation was inactive: 11.4%.

For `O=C(Cn1cccc1C(=O)c1ccccc1)NCc1ccc(Cl)cc1`, the activation is inactive: -1.71%.

In the case of `CCCN1CCN(CCCNC(=O)c2cc3c(=O)[nH]c4ccccc4c3s2)CC1`, the activation was inactive: 10%.

Consider `COc1ccc(NC(=O)CNC(=O)Cn2ccc3ccccc3c2=O)c(OC)c1`, for which the activation is inactive: -4.37%.

For `CCc1ccc(-c2nc(CN3CCCC(C(=O)NCc4ccccc4Cl)C3)c(C)o2)cc1` (stereo not drawn), the activation was inactive: -18.1%.

Consider `C=C1C[C@H]2[C@@H]3C=C(C)C4=CC(=O)CC[C@]4(C)[C@H]3CC[C@]2(C)[C@@]1(OC(C)=O)C(C)=O`, for which the activation is inactive: -15.9%.

Take `Cc1ccc2c(c1)-c1nc(-c3ccccc3)cc(-c3ccccc3)c1CO2`: the activation is inactive: -7.81%.

Take `COc1cc(-c2cc3n(C)c(C)c(CCC(=O)NC4CCC(C)CC4)c(=O)n3n2)cc(OC)c1OC` (stereo not drawn): the activation was inactive: -18.9%.

Regarding `CCOc1ccc(N(CC)S(=O)(=O)N2CCCC(C(=O)NCc3ccccc3OCC)C2)cc1` (stereo not drawn), the activation is inactive: -22.7%.

As to `Cc1nn2c(=O)cc(COC(=O)c3ccccc3NC(=O)C3CCCCC3)nc2s1`, the activation is inactive: -14.9%.

In the case of `O=C(NC1CCCC1)c1ccc2c(c1)N(Cc1c(F)cccc1Cl)C(=O)c1ccccc1S2`, the activation is inactive: -10.4%.

Regarding `COc1cc(C(=O)N(CCCN(C)C)c2nc3c(OC)cccc3s2)cc(OC)c1OC`, the activation is inactive: -13.2%.

With `CCOC(=O)C1=C(CN2CCN(c3ccc(Cl)cc3)CC2)NC(=O)NC1c1ccc(F)cc1` (stereo not drawn), the activation was inactive: -2.26%.

In the case of `NC(=O)COc1ccc(-c2noc(COc3ccc(Cl)cc3)n2)cc1`, the activation is inactive: 9.68%.

For `O=C(CSc1nc2c([nH]c3ccccc32)c(=O)n1-c1ccccc1)Nc1ccccc1C(F)(F)F`, the activation is inactive: -20.9%.

Consider `Cc1nn(CC(=O)NC(C)c2ccccc2)c(=O)c2cc3occc3n12` (stereo not drawn), for which the activation was inactive: 3.24%.

As for `COc1cccc2c1Oc1ncccc1N(C(=O)CCC(=O)NCc1ccc(OC(C)C)cc1)C2`, the activation was inactive: -14%.

Consider `NS(=O)(=O)c1ccc(CCNC(=O)Cn2c(=O)c3cccn3c3ccc(F)cc32)cc1`, for which the activation is inactive: -7.37%.

With `COc1ccc2c(c1)CC(C(=O)Nc1c(C)cc(C)cc1C)CO2` (stereo not drawn), the activation is inactive: -20.3%.

In the case of `CCc1ccccc1-n1nnc(-c2nc(-c3ccccc3F)no2)c1C`, the activation was inactive: 4.37%.

With `O=C(Nc1cccc(F)c1)C1CCN(c2nc3ccccc3nc2C(F)(F)F)CC1`, the activation was inactive: -21.7%.

In the case of `Cc1ccc(-n2c3c(c(=O)[nH]c2=O)C(NC(=O)C(C)(C)C)(C(F)(F)F)C(=O)N3)cc1` (stereo not drawn), the activation was inactive: -24.7%.

Consider `COc1cc(CNCCCSc2nnnn2C)cc(Br)c1OC`, for which the activation is inactive: -6.18%.

In the case of `COc1cccc(C(=O)NCC(c2ccc3c(c2)OCO3)N2CCN(C)CC2)c1` (stereo not drawn), the activation was inactive: -1.81%.

Take `Cn1c(=O)n(C)c2cc(NS(=O)(=O)c3ccc(Cl)cc3)c(NCc3ccccc3)cc21`: the activation is inactive: 7.63%.
